Patent US8008346B2, “Chemotherapeutic agents for inhibition of protein translation” (The Royal University for the Advancement of Learning/McGill …, priority 2006, dated 2011)

Test system: cap-dependent translation initiation
Assay: Cap-dependent translation of FF/HCV/Ren mRNA in Krebs-2 extracts
Settings: Krebs-2 extracts programmed with FF/HCV/Ren mRNA
Description: FIG. 5. Hippuristanol inhibits cap-dependent translation initiation. A. Schematic diagram of FF/HCV/Ren mRNA. B. Titration of hippuristanol in Krebs-2 extracts programmed with FF/HCV/Ren mRNA. SDS-PAGE analysis of in vitro translations performed in Krebs-2 extracts in the presence of ^35S-methionine. The addition of hippuristanol and vehicle to the translation reaction is shown above the panel. C. Graphical representation of the effects of hippuristanol on the translation of FF/HCV/Ren mRNA in Krebs-2 extracts. The results shown are the average of 3 experiments. D. Effect of hippuristanol on cap-dependent and HCV IRES-mediated translation in vivo. Following transfection with pcDNA/Ren/HCV/FF, 293 cells were incubated with the indicated concentrations of hippuristanol for 10 hrs. Luciferase activity was measured from cell extracts and is expressed relative to vehicle (DMSO) treated cells. […]
FIG. 12 Structure-Activity Relationship of hippuristanol congeners. A. The chemical structure of the hippuristanol congeners is presented along with the IC50 determined for inhibition of cap-dependent translation in Krebs-2 extracts programmed with FF/HCV/Ren mRNA. […]
In vitro translations were performed using Krebs-2 extracts at a final mRNA and K^+ concentration of 5 μg/ml and 100 mM, respectively (33). Firefly and renilla luciferase activities (RLU) were measured on a Berthold Lumat LB 9507 luminometer. […]

C[C@H]1C[C@@]2(O[C@H]3C[C@H]4[C@@H]5CC[C@H]6C[C@H](O)CC[C@]6(C)[C@H]5[C@@H](O)C[C@]4(C)[C@H]3[C@@]2(C)O)OC1(C)C [Hippuristanol, hippuristanol]
cap-dependent translation initiation: inhibits
